In the RNAGym collection of RNA variant scans (doi:10.1093/nar/gkz1192):
Read counts are not given, so values of variants with three or more changes are uncertain.

B1: CPEB3 Ribozyme (parent)
chain: UAACAGGGGGCCACAGCAGAAGCGUUCACGUCGCAGCCCCUGUCAGAUUCUGGUGAAUCUGCGAAUUCUGCUGUAUAUCUC

Variants of: B1
Assay: self-cleavage, relative activity (ratio to wild type); higher = more cleavage; in vitro, sequencing
Summary of the method: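 CPEB3 self-cleaving ribozyme mutant libraries were made by rounds of error-prone PCR, barcoded, and transcribed in vitro with T7 RNA polymerase for 5 hours at 37°C. Cleavage occurred during transcription and a 15 min DNase I step before EDTA stop. RNAs were reverse transcribed with template switching and Illumina-sequenced, with DNA sequencing mapping barcodes to variants. Relative activity is the variant's cleaved/total read fraction divided by wild type's (minimum 5 reads), averaged across three batches.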

Variant | self-cleavage
U1A A2C C27U A65G | 0.07
U1A A2C U74A U80C | 1.22
U1A A2G A18G U41C A64U | 0.27
U1A A2G A28G U51C U66C | 0.29
U1A A2G G9U U69A | 0.41
U1A A3C A13U U72C | 1.17
U1A A3C A21G U25G | 0.06
U1A A3C A77G | 1.19
U1A A3G A15G | 0.82
U1A A3G A18U G33A A47U | 0.31
U1A A3G A21G G53C A64G U74A U78C | 0.61
U1A A3G A21U A45G G70A U78C | 0.48
U1A A3G A56G U60C U66A U74C | 0.36
U1A A3G C11A | 0.37
U1A A3G U25G A45G G70A U78C | 0.09
U1A A3G U48C U49C U51C | 0.39
U1A A3G U54C | 1.11
U1A A3G U60C A64G U78C | 0.52
U1A A3G U74C A75G U76A | 1.24
U1A A3G U78C | 1.15
U1A A3U A21U U26A U41G U51C U74A | 0.35
U1A A3U U48C U60C G63C | 0.26
U1A A5G A13U U25C A65G | 0.2
U1A A5G G55U U69A A77U | 0.32

Variant | self-cleavage
U1A A5G U41A U72A A77U | 0.79
U1A A5U A13U G33U U69G | 0.24
U1A A5U A28G A35G U74C A75G | 1.21
U1A A5U A28G A57G | 0.69
U1A A5U G6U U54C U58A | 0.16
U1A A13C A15U A56U | 0.39
U1A A13C G19C C32A C39A | 0.33
U1A A13G A15G G36U U49C | 0.05
U1A A13G A45G A47G | 0.33
U1A A13G G22A | 0.24
U1A A13G U43C | 0.65
U1A A13G U48A | 0.16
U1A A13U A21G A47G A65G | 0.09
U1A A13U G16U A45U | 0.28
U1A A13U U31C A56U | 0.27
U1A A13U U41C U60A A75G U76C | 0.74
U1A A13U U51C U66C U74C | 0.59
U1A A13U U54A U67A | 0.79
U1A A15G A20G U26C U48A U69C A75G | 0.31
U1A A15G A28G C39G A57G | 0.08
U1A A15G A28G C39U U41C A56G | 0.35
U1A A15G A28G U58C U67C A77U | 0.11
U1A A15G C17U A28G | 0.49
U1A A15G C39G U60A | 0.06

Variant | self-cleavage
U1A A15G U51A U69A | 0.32
U1A A15G U51C A56G | 0.94
U1A A18G A20G C23G U25C U72C G73C | 0.07
U1A A18G C29A U76C | 0.31
U1A A18G G53C | 0.62
U1A A18G U43G A56G U60C | 0.22
U1A A18U A20G A35G U60A U67C | 0.3
U1A A18U A35U C39U G52A A57G | 0.09
U1A A18U A64G U78C | 0.19
U1A A18U G42A | 0.19
U1A A18U U25A U26C U31C A45G | 0.08
U1A A18U U43C | 0.24
U1A A18U U54A A56U U74A | 0.22
U1A A20C U31A A45G A56G | 0.14
U1A A20C U43A A45G A56G | 0.25
U1A A20G A21G U43G | 0.13
U1A A20G G33U A56U U78C | 0.13
U1A A20G G36U U41C U49A C62U | 0.25
U1A A20G U31C U41C G53A | 0.62
U1A A20U A21G A57C A64U U67C U78C | 0.06
U1A A20U U31C | 0.21
U1A A21G C44A | 0.36
U1A A21G U25C U69A | 0.19
U1A A21G U51A | 0.29

Variant | self-cleavage
U1A A21U A64G U66A | 0.62
U1A A21U U78C | 0.33
U1A A28G A35C | 0.67
U1A A28G A35G U54A | 1.15
U1A A28G U41C | 0.65
U1A A35G A47U A75G U78G | 1.28
U1A A35G U43C G55U | 0.96
U1A A35G U51C | 1.22
U1A A35G U80C | 1.33
U1A A45G C79G | 0.76
U1A A45G C81U | 0.98
U1A A64G U72A | 0.65
U1A C4A A15U U51C A57U U72C | 0.3
U1A C11A A64G | 0.38
U1A C11G A15U C17U U48A C59U U66A | 0.04
U1A C12G A13G U43C | 0.3
U1A C12G U72A U78C | 0.09
U1A C12U A18G A20G G33A A57G U78C | 0.09
U1A C14A A21G C29U G55U | 0.08
U1A C14U G16A G19C U78A | 0.1
U1A C17A U43C C81U | 0.1
U1A C29G A35G C40U U69A U72A A75G | 0.07
U1A C40G A57G U80A | 0.07
U1A C44U U51G U66A | 0.17

Variant | self-cleavage
U1A C59A U76G | 0.32
U1A C68A U72G | 0.22
U1A G6A A57G | 0.32
U1A G6A C11G U25C A65G | 0.25
U1A G7A A13G U60A | 0.2
U1A G7A A20G | 0.09
U1A G7U U54C U80C | 0.37
U1A G8A G16U U41C U54C U78C C79U | 0.05
U1A G8C C12U U31A G73A | 0.43
U1A G8U C32U A35C | 0.06
U1A G9A A15G A21G | 0.25
U1A G9A A20G U41C U72C | 0.27
U1A G9A U25C C29U U49G U76C | 0.05
U1A G9A U41A U66C U78A | 0.04
U1A G9U G42A U69A | 0.12
U1A G10A C34A U49C A64G | 0.07
U1A G10A U67A | 0.34
U1A G10U U58C | 0.08
U1A G16C G24C | 0.3
U1A G19C U48C | 0.35
U1A G22C C79A | 0.27
U1A G30A U48C U58G U78A | 0.03
U1A G30C U43C U48C C50U U80G | 0.04
U1A G33A U43G C59A U72C | 0.12

Variant | self-cleavage
U1A G33C U41A A45G G46C | 0.22
U1A G42A U80A | 0.33
U1A U25A A35G U41A A57C U60C U80A | 0.08
U1A U25A A35U A45G U48C U67C | 0.14
U1A U25A C39U A47U A64G | 0.12
U1A U25A U26C A47G A57U | 0.14
U1A U25C A65G | 0.29
U1A U25C U41A A75U | 0.07
U1A U26A A57G | 0.74
U1A U26C A35U U60C U76A | 0.11
U1A U26C A57U | 0.41
U1A U26C U60C | 0.24
U1A U26C U67C | 0.31
U1A U26G G46U U51G U67A | 0.13
U1A U31C C39A A45C U49A | 0.1
U1A U41A U74C | 0.31
U1A U41C A57C | 0.39
U1A U41C G42C U66C U69A U74A | 0.17
U1A U43A A45U C62A U74C U80A | 0.13
U1A U43A C44U U74C A75U | 0.97
U1A U43C U48C | 0.25
U1A U43C U78A | 0.78
U1A U48A C59U | 0.06
U1A U49A A56U | 1.02

Variant | self-cleavage
U1A U51C G52U | 0.73
U1A U51C U80A | 1.1
U1A U54A U66C | 0.45
U1A U60A G70C | 0.36
U1A U60C U72C | 0.31
U1A U67A A77U | 0.45
U1C A2C U41C | 0.96
U1C A2G A3C U69C A75U A77U | 0.58
U1C A2G A15G A20G U41A U54A A64G | 0.47
U1C A2G A18U U51A | 0.42
U1C A2G C14U A35U U43A U67C | 0.08
U1C A2G C23U U26A C37A U72A U80C | 0.15
U1C A2G G6A A13G A18G C37A A75U | 0.05
U1C A2G G10A | 0.09
U1C A2G G10A U67G | 0.24
U1C A2G G16U A21U G52A | 0.06
U1C A2G U26A A28U U66A | 0.1
U1C A2G U31A A47G U69C | 0.09
U1C A2G U41A U43C G46U A57G G61U | 0.21
U1C A2G U51C A64U C68A U78C | 0.12
U1C A2U A5U G16C A77U | 0.17
U1C A2U A18G A35G C40U U67C | 0.26
U1C A2U A28G A64G U78C | 0.2
